# According to a collection of fitness landscapes (doi:10.1016/j.celrep.2020.107928):
# The full ranking holds about 81,000 sequences; the median of “one-hybrid fitness for binding NBS DNA” is about -0.1, and the highest 2% start at about 0.36. This is one part of the list.
# B1: Caulobacter ParB omega fusion; a variant is named by its letters at X, in order, B8GW30 (parent)
# chain: MESVVVGEPGMSEGRRGLGRGLSALLGEVDAAPAQAPGEQLGGSREAPIEILQRNPDQPRRTFREEDLEDLSNSIREKGVLQPILVRPSPDTAGEYQIVAGERAWRAAQRAGLKTVPIMVRELDDLAVLEIGIIENVQRADLNVLEEALSYKVLMEKFERTQENIAQTIGKSXSHVANXMRLLXLPDEVQSYLVSGELTAXHARAIAAAADPVALAKQIIEGGLSVRETEALARKAPNLSAGKSKGGRPPRVKDTDTQALESDLSSVLGLDVSIDHRGSTGTLTITYATLEQLDDLCNRLTRGI
# Variants of: B1
# Experiment: one-hybrid fitness for binding NBS DNA (the Noc-binding site; scaled: cognate 1, non-cognate 0); higher = stronger binding
# Settings: with NBS DNA site
# Procedure, shortened: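 The reporter was HIS3, with the binding site 19 bp from the promoter, in E. coli USO used for bacterial one-hybrid selection of Caulobacter ParB libraries with four specificity codons randomised. Growth was on M9 lacking histidine, with 0.1 mM IPTG and 5 mM 3-AT, for 48 hours at 37°C. Illumina sequencing covered plasmids before and after selection; three replicate libraries were pooled and variants with under 10 reads dropped. A fitness score is the log change in variant-to-wild-type read ratio, rescaled to the cognate and non-cognate references.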
row,Variant,one-hybrid fitness for binding NBS DNA
1,KSLS,≤ 0.2
2,QHEF,≤ 0.2
3,GGCG,≤ 0.2
4,IGAY,≤ 0.2
5,TYNH,≤ 0.2
6,RFIK,≤ 0.2
7,AGND,≤ 0.2
8,PMEI,≤ 0.2
9,KATV,≤ 0.2
10,RIHS,0.381
11,QGKR,0.358
12,PVCI,≤ 0.2
13,DKRR,≤ 0.2
14,KKTA,≤ 0.2
15,RNPG,≤ 0.2
16,LPAH,≤ 0.2
17,CRWC,≤ 0.2
18,PNTL,≤ 0.2
19,RPTE,≤ 0.2
20,ASAH,≤ 0.2
21,KMRS,≤ 0.2
22,DHLG,≤ 0.2
23,HTAT,≤ 0.2
24,QSEF,≤ 0.2
25,CTDL,≤ 0.2
26,KWSH,≤ 0.2

row,Variant,one-hybrid fitness for binding NBS DNA
1,LMAV,≤ 0.2
2,LRGE,≤ 0.2
3,CNWR,≤ 0.2
4,HAFM,≤ 0.2
5,ELDG,≤ 0.2
6,NKDW,≤ 0.2
7,QVQL,≤ 0.2
8,ELGT,≤ 0.2
9,PSSP,≤ 0.2
10,PECS,≤ 0.2
11,DVQT,≤ 0.2
12,LPDA,≤ 0.2
13,TGES,≤ 0.2
14,MLPR,≤ 0.2
15,RCWE,≤ 0.2
16,NFPA,≤ 0.2
17,CSKR,≤ 0.2
18,YRVE,≤ 0.2
19,AKKR,≤ 0.2
20,NIVP,≤ 0.2
21,PYVY,≤ 0.2
22,ELIR,≤ 0.2
23,ISAD,≤ 0.2
24,AYSY,≤ 0.2
25,IIGR,≤ 0.2
26,DGRG,≤ 0.2

row,Variant,one-hybrid fitness for binding NBS DNA
1,RRCF,≤ 0.2
2,MANS,≤ 0.2
3,QRHT,0.789
4,KLTK,≤ 0.2
5,LQQC,≤ 0.2
6,QIQR,0.39
7,SNTF,≤ 0.2
8,WMTL,≤ 0.2
9,IRVA,≤ 0.2
10,LLWG,≤ 0.2
11,DTHC,≤ 0.2
12,TSKA,≤ 0.2
13,IDAR,≤ 0.2
14,CALV,≤ 0.2
15,MPCI,≤ 0.2
16,KAAT,≤ 0.2
17,MEPF,≤ 0.2
18,VSTS,≤ 0.2
19,EMER,≤ 0.2
20,AYWC,≤ 0.2
21,IHGV,≤ 0.2
22,TAAC,≤ 0.2
23,PCMY,≤ 0.2
24,AEIG,≤ 0.2
25,LRNF,≤ 0.2
26,LMPC,≤ 0.2

row,Variant,one-hybrid fitness for binding NBS DNA
1,GMSW,≤ 0.2
2,LDYC,≤ 0.2
3,ALEF,≤ 0.2
4,KCRY,≤ 0.2
5,RCTG,≤ 0.2
6,EAPS,≤ 0.2
7,MHFS,≤ 0.2
8,GMNS,≤ 0.2
9,GHVQ,≤ 0.2
10,PAHG,≤ 0.2
11,VFES,≤ 0.2
12,RYVQ,≤ 0.2
13,RNVP,≤ 0.2
14,EYSK,≤ 0.2
15,QDHQ,≤ 0.2
16,MMVR,≤ 0.2
17,TDGG,≤ 0.2
18,VQTM,≤ 0.2
19,TEPR,≤ 0.2
20,YQHR,≤ 0.2
21,FMDG,≤ 0.2
22,WVEH,≤ 0.2
23,RYAW,≤ 0.2
24,RPEH,≤ 0.2
25,PHKN,≤ 0.2
26,AGHF,≤ 0.2

row,Variant,one-hybrid fitness for binding NBS DNA
1,FSLR,≤ 0.2
2,HLLR,≤ 0.2
3,LTHD,≤ 0.2
4,GSPV,≤ 0.2
5,RACM,≤ 0.2
6,QFCF,≤ 0.2
7,SIPK,≤ 0.2
8,HTMT,≤ 0.2
9,ETNI,≤ 0.2
10,QARY,0.499
11,THRE,≤ 0.2
12,QKKK,0.437
13,DIRC,≤ 0.2
14,YTED,≤ 0.2
15,VQSR,≤ 0.2
16,YIAT,≤ 0.2
17,MHAG,≤ 0.2
18,RAQC,≤ 0.2
19,VYAV,≤ 0.2
20,WLLP,≤ 0.2
21,ELYK,≤ 0.2
22,RIDW,≤ 0.2
23,SVRS,≤ 0.2
24,GTDI,≤ 0.2
25,TSPM,≤ 0.2
26,SQAV,≤ 0.2

row,Variant,one-hybrid fitness for binding NBS DNA
1,QKSC,≤ 0.2
2,AHLQ,≤ 0.2
3,MCIS,≤ 0.2
4,PHEV,≤ 0.2
5,YPDC,≤ 0.2
6,ILGW,≤ 0.2
7,AINF,≤ 0.2
8,KAKN,≤ 0.2
9,EGTC,≤ 0.2
10,WFNC,≤ 0.2
11,PSGF,≤ 0.2
12,HMST,≤ 0.2
13,VFKT,≤ 0.2
14,RLKR,0.686
15,IYEG,≤ 0.2
16,LIEG,≤ 0.2
17,YCVS,≤ 0.2
18,LMTY,≤ 0.2
19,WCLW,≤ 0.2
20,GMQY,≤ 0.2
21,AGFG,≤ 0.2
22,KCAV,≤ 0.2
23,VISV,≤ 0.2
